In paper PMC9687571, “Anti-Inflammatory Activity of Olive Oil Polyphenols—The Role of Oleacein and Its Metabolites” (Biomedicines, 2022):

Experiments:
[1] = test system: non-activated RAW 264.7 macrophages; settings: for effect on cell viability (MTT reduction): non-activated RAW 264.7, 24 h exposure, 0 to 100 µM
[2] = test system: LPS-stimulated RAW 264.7 macrophages; test: ●NO levels in cell culture medium (Griess reaction); assay type: cell-based, murine; settings: for concentrations giving a significant reduction in ●NO levels in cell culture medium: 1 h pre-treatment, 23 h co-treatment with LPS 0.3 µg/mL; for reduction in ●NO levels: concentration range 12.5–25 µM
Experimental: The effect of compounds on ^●NO levels in culture medium of LPS-activated macrophages was determined by measuring the nitrites through the Griess reaction, as previously described. […] After 24 h, cells were pre-treated with non-toxic concentrations of compounds or media (control) for 1 h and then co-incubated with LPS solution (0.3 µg/mL) for an additional 23 h. […] The results were expressed as % of ^●NO production by cells exposed to LPS and correspond to the mean ± SEM of four independent assays, each performed in triplicate. Quercetin was used as the positive control.

[3] = test system: LPS-stimulated RAW 264.7 macrophages; test: L-citrulline levels in extracellular medium (diacetyl monoxime/antipyrine colorimetric method); assay type: cell-based, murine; settings: for decrease in cellular production of L-citrulline (released during 3 h): highest tested concentration (100 µM), HBSS + 200 µM L-arginine
Experimental: (§1) L-citrulline was quantified by a colorimetric method that takes advantage of the ureido group-specific reaction with diacetyl monoxime/antipyrine in the presence of sulfuric acid, using cell assay conditions that avoid the interferences promoted by the serum proteins and pH indicator present in cell culture medium. […] Afterward, the culture medium was removed, cells were washed three times with HBSS before being incubated with HBSS supplemented with 200 µM of L-arginine (300 µL/well) for an additional 3 h. Then, the extracellular medium of each well was collected and used to assess the ^●NO and L-citrulline released by cells. 75 µL were used to quantify the ^●NO levels by using Griess reagent, as described above. For L-citrulline quantification, 250 µL extracellular medium were mixed with 1250 µL of chromogenic reactional solution (40% (v/v) of 79 mM diacetyl monoxime in 83 mM of acetic acid, 18% (v/v) of 47.8 mM antipyrine E in H2O and 42% (v/v) of 7.5 M sulfuric acid). […] Quercetin was used as the positive control.

[4] = test system: LPS-stimulated RAW 264.7 macrophages; test: ●NO levels in extracellular medium after 3 h in HBSS + L-arginine; assay type: cell-based, murine; settings: highest tested concentration (100 µM), HBSS + 200 µM L-arginine
Experimental: as §1

| SMILES | concentrations exhibiting cell toxicity (significant decrease in cell viability) [1] [µM] | concentrations giving a significant reduction in ●NO levels in cell culture medium [2] [µM] | reduction in ●NO levels ([2]; p < 0.05) | decrease in cellular production of L-citrulline (released during 3 h) [3] | decrease in cellular production of ●NO (released during 3 h) [4] | effect on cell viability (MTT reduction) [1] | decrease in ●NO levels in cell culture medium ([2]; at 25 µM, p < 0.05) | effect on amount of L-citrulline generated by LPS-stimulated macrophages ([3]; 12.5 µM) |
| --- | --- | --- | --- | --- | --- | --- | --- | --- |
| CC(=O)OCCc1ccc(O)c(O)c1 [AcHyTy, hydroxytyrosol acetate] | ≥ 50 | ≥ 12.5 | up to 25% | ~20% | ~20% |  |  |  |
| OCCc1ccc(O)c(O)c1 [HyTy, hydroxytyrosol] |  | ≥ 25 | up to 25% | about 50% | about 50% | do not alter the viability | ~ 20% |  |
| C/C=C(/C=O)[C@@H](CC=O)CC(=O)OCCc1ccc(O)c(O)c1 [oleacein] |  | ≥ 12.5 | up to 25% | about 50% | about 50% | do not alter the viability |  | significantly decreased |
